In the supplement of paper PMC8728848:
The list shows a part of the results.

Experiments:
Assay in all cases: glycan array binding signal (z-score within array); higher = stronger binding
Settings in all cases: glycan notation: IUPAC condensed, linker removed
[1] = target: Neu5Ac(a2-3)Gal(b1-4)GlcNAc(b1-2)[Neu5Ac(a2-3)Gal(b1-4)GlcNAc(b1-4)]Man(a1-3)[GlcNAc(b1-4)][Neu5Ac(a2-3)Gal(b1-4)GlcNAc(b1-2)[Neu5Ac(a2-3)Gal(b1-4)GlcNAc(b1-6)]Man(a1-6)]Man(b1-4)GlcNAc(b1-4)GlcNAc
Summary of the method: (§1)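 The binding signal is a Z-score computed within each array and averaged over linkers. Arrays of the same protein sequence at different concentrations or buffers were also averaged together. Data originate from 3228 arrays in the Consortium for Functional Glycomics database, kept only where the protein sequence was available.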

[2] = target: Neu5Ac(a2-3)Gal(b1-4)GlcNAc(b1-2)[Neu5Ac(a2-3)Gal(b1-4)GlcNAc(b1-4)]Man(a1-3)[GlcNAc(b1-4)][Neu5Ac(a2-3)Gal(b1-4)GlcNAc(b1-4)Man(a1-6)]Man(b1-4)GlcNAc(b1-4)GlcNAc
Summary of the method: as §1

[3] = target: Neu5Ac(a2-3)Gal(b1-4)GlcNAc(b1-2)[Neu5Ac(a2-3)Gal(b1-4)GlcNAc(b1-6)]Man(a1-6)[Neu5Ac(a2-3)Gal(b1-4)GlcNAc(b1-2)Man(a1-3)][GlcNAc(b1-4)]Man(b1-4)GlcNAc(b1-4)GlcNAc
Summary of the method: as §1

[4] = target: Neu5Ac(a2-3)Gal(b1-4)GlcNAc(b1-3)Gal
Summary of the method: as §1

[5] = target: Neu5Ac(a2-3)Gal(b1-4)GlcNAc(b1-3)Gal(b1-3)GlcNAc
Summary of the method: as §1

[6] = target: Neu5Ac(a2-3)Gal(b1-4)GlcNAc(b1-3)Gal(b1-4)GlcNAc
Summary of the method: as §1

[7] = target: Neu5Ac(a2-3)Gal(b1-4)GlcNAc(b1-3)Gal(b1-4)GlcNAc(b1-2)Man(a1-3)[Neu5Ac(a2-3)Gal(b1-4)GlcNAc(b1-3)Gal(b1-4)GlcNAc(b1-2)Man(a1-6)]Man(b1-4)GlcNAc(b1-4)GlcNAc
Summary of the method: as §1

[8] = target: Neu5Ac(a2-3)Gal(b1-4)GlcNAc(b1-3)Gal(b1-4)GlcNAc(b1-3)Gal(b1-4)GlcNAc
Summary of the method: as §1

[9] = target: Neu5Ac(a2-3)Gal(b1-4)GlcNAc(b1-3)Gal(b1-4)GlcNAc(b1-3)Gal(b1-4)GlcNAc(b1-2)Man(a1-3)[Neu5Ac(a2-3)Gal(b1-4)GlcNAc(b1-3)Gal(b1-4)GlcNAc(b1-3)Gal(b1-4)GlcNAc(b1-2)Man(a1-6)]GalNAc
Summary of the method: as §1

[10] = target: Neu5Ac(a2-3)Gal(b1-4)GlcNAc(b1-3)Gal(b1-4)GlcNAc(b1-3)GalNAc
Summary of the method: as §1

[11] = target: Neu5Ac(a2-3)Gal(b1-4)GlcNAc(b1-3)Gal(b1-4)GlcNAc(b1-3)[Neu5Ac(a2-3)Gal(b1-4)GlcNAc(b1-3)Gal(b1-4)GlcNAc(b1-6)]GalNAc
Summary of the method: as §1

[12] = target: Neu5Ac(a2-3)Gal(b1-4)GlcNAc(b1-3)Gal(b1-4)GlcNAc(b1-6)[Gal(b1-3)]GalNAc
Summary of the method: as §1

[13] = target: Neu5Ac(a2-3)Gal(b1-4)GlcNAc(b1-3)Gal(b1-4)[Fuc(a1-3)]GlcNAc
Summary of the method: as §1

[14] = target: Neu5Ac(a2-3)Gal(b1-4)GlcNAc(b1-3)GalNAc
Summary of the method: as §1

[15] = target: Neu5Ac(a2-3)Gal(b1-4)GlcNAc(b1-3)[Neu5Ac(a2-3)Gal(b1-4)GlcNAc(b1-6)]GalNAc
Summary of the method: as §1

[16] = target: Neu5Ac(a2-3)Gal(b1-4)GlcNAc(b1-6)GalNAc
Summary of the method: as §1

[17] = target: Neu5Ac(a2-3)Gal(b1-4)GlcNAc(b1-6)[Gal(b1-3)]GalNAc
Summary of the method: as §1

[18] = target: Neu5Ac(a2-3)Gal(b1-4)GlcNAc(b1-6)[Neu5Ac(a2-3)Gal(b1-3)]GalNAc
Summary of the method: as §1

[19] = target: Neu5Ac(a2-3)Gal(b1-4)GlcNAc6S
Summary of the method: as §1

[20] = target: Neu5Ac(a2-3)Gal(b1-4)[Fuc(a1-3)]GlcNAc
Summary of the method: as §1

[21] = target: Neu5Ac(a2-3)Gal(b1-4)[Fuc(a1-3)]GlcNAc(b1-2)Man
Summary of the method: as §1

[22] = target: Neu5Ac(a2-3)Gal(b1-4)[Fuc(a1-3)]GlcNAc(b1-3)Gal
Summary of the method: as §1

[23] = target: Neu5Ac(a2-3)Gal(b1-4)[Fuc(a1-3)]GlcNAc(b1-3)Gal(b1-4)GlcNAc
Summary of the method: as §1

[24] = target: Neu5Ac(a2-3)Gal(b1-4)[Fuc(a1-3)]GlcNAc(b1-3)Gal(b1-4)[Fuc(a1-3)]GlcNAc(b1-3)Gal(b1-4)[Fuc(a1-3)]GlcNAc
Summary of the method: as §1

[25] = target: Neu5Ac(a2-3)Gal(b1-4)[Fuc(a1-3)]GlcNAc(b1-3)GalNAc
Summary of the method: as §1

[26] = target: Neu5Ac(a2-3)Gal(b1-4)[Fuc(a1-3)]GlcNAc(b1-6)[Gal(b1-3)]GalNAc
Summary of the method: as §1

[27] = target: Neu5Ac(a2-3)Gal(b1-4)[Fuc(a1-3)]GlcNAc(b1-6)[Neu5Ac(a2-3)Gal(b1-3)]GalNAc
Summary of the method: as §1

[28] = target: Neu5Ac(a2-3)Gal(b1-4)[Fuc(a1-3)]GlcNAc6S
Summary of the method: as §1

[29] = target: Neu5Ac(a2-3)Gal6S(b1-4)GlcNAc
Summary of the method: as §1

[30] = target: Neu5Ac(a2-3)Gal6S(b1-4)[Fuc(a1-3)]GlcNAc
Summary of the method: as §1

Neu5Ac(a2-3)GalNAc = target: Neu5Ac(a2-3)GalNAc
Summary of the method: as §1

[31] = target: Neu5Ac(a2-3)GalNAc(b1-4)GlcNAc
Summary of the method: as §1

[32] = target: Neu5Ac(a2-3)[GalNAc(b1-4)]Gal(b1-4)Glc
Summary of the method: as §1

[33] = target: Neu5Ac(a2-3)[GalNAc(b1-4)]Gal(b1-4)GlcNAc
Summary of the method: as §1

[34] = target: Neu5Ac(a2-3)[GalNAc(b1-4)]Gal(b1-4)GlcNAc(b1-3)GalNAc
Summary of the method: as §1

[35] = target: Neu5Ac(a2-3)[Neu5Ac(a2-6)]GalNAc
Summary of the method: as §1

Neu5Ac(a2-6)Gal = target: Neu5Ac(a2-6)Gal
Summary of the method: as §1

[36] = target: Neu5Ac(a2-6)Gal(b1-3)GlcNAc(b1-3)[Gal(b1-4)GlcNAc(b1-6)]Gal(b1-4)Glc
Summary of the method: as §1

Neu5Ac(a2-6)Gal(b1-4)Glc = target: Neu5Ac(a2-6)Gal(b1-4)Glc
Summary of the method: as §1

[37] = target: Neu5Ac(a2-6)Gal(b1-4)GlcNAc
Summary of the method: as §1

[38] = target: Neu5Ac(a2-6)Gal(b1-4)GlcNAc(b1-2)Man
Summary of the method: as §1

[39] = target: Neu5Ac(a2-6)Gal(b1-4)GlcNAc(b1-2)Man(a1-3)Man(b1-4)GlcNAc(b1-4)GlcNAc
Summary of the method: as §1

[40] = target: Neu5Ac(a2-6)Gal(b1-4)GlcNAc(b1-2)Man(a1-3)[Gal(b1-4)GlcNAc(b1-2)Man(a1-6)]Man(b1-4)GlcNAc(b1-4)GlcNAc
Summary of the method: as §1

[41] = target: Neu5Ac(a2-6)Gal(b1-4)GlcNAc(b1-2)Man(a1-3)[GlcNAc(b1-2)Man(a1-6)]Man(b1-4)GlcNAc(b1-4)GlcNAc
Summary of the method: as §1

[42] = target: Neu5Ac(a2-6)Gal(b1-4)GlcNAc(b1-2)Man(a1-3)[GlcNAc(b1-4)][Neu5Ac(a2-6)Gal(b1-4)GlcNAc(b1-2)Man(a1-6)]Man(b1-4)GlcNAc(b1-4)GlcNAc
Summary of the method: as §1

B1: Thrombomodulin (Mus musculus) (protein)
chain: ALAKLQPTGSQCVEHECFALFQGPATFLDASQACQRLQGHLMTVRSSVAADVISLLLSQSSMDLGPWIGLQLPQGCDDPVHLGPLRGFQWVTGDNHTSYSRWARPNDQTAPLCGPLCVTVSTATEAAPGEPAWEEKPCETETQGFLCEFYFTASC
[1]
  glycan array binding signal (z-score): -0.052
[2]
  glycan array binding signal (z-score): -0.215
[3]
  glycan array binding signal (z-score): -0.026
[4]
  glycan array binding signal (z-score): -0.45
[5]
  glycan array binding signal (z-score): -0.184
[6]
  glycan array binding signal (z-score): -0.369
[7]
  glycan array binding signal (z-score): -0.353
[8]
  glycan array binding signal (z-score): -0.135
[9]
  glycan array binding signal (z-score): -0.222
[10]
  glycan array binding signal (z-score): -0.263
[11]
  glycan array binding signal (z-score): -0.139
[12]
  glycan array binding signal (z-score): -0.192
[13]
  glycan array binding signal (z-score): -0.359
[14]
  glycan array binding signal (z-score): -0.202
[15]
  glycan array binding signal (z-score): 0.096
[16]
  glycan array binding signal (z-score): -0.412
[17]
  glycan array binding signal (z-score): -0.321
[18]
  glycan array binding signal (z-score): -0.43
[19]
  glycan array binding signal (z-score): -0.185
[20]
  glycan array binding signal (z-score): -0.163
[21]
  glycan array binding signal (z-score): -0.217
[22]
  glycan array binding signal (z-score): -0.301
[23]
  glycan array binding signal (z-score): 0.146
[24]
  glycan array binding signal (z-score): -0.358
[25]
  glycan array binding signal (z-score): 0.695
[26]
  glycan array binding signal (z-score): 0.37
[27]
  glycan array binding signal (z-score): 0.029
[28]
  glycan array binding signal (z-score): -0.017
[29]
  glycan array binding signal (z-score): -0.177
[30]
  glycan array binding signal (z-score): -0.638
Neu5Ac(a2-3)GalNAc
  glycan array binding signal (z-score): -0.261
[31]
  glycan array binding signal (z-score): -0.236
[32]
  glycan array binding signal (z-score): -0.061
[33]
  glycan array binding signal (z-score): -0.32
[34]
  glycan array binding signal (z-score): -0.267
[35]
  glycan array binding signal (z-score): 0.085
Neu5Ac(a2-6)Gal
  glycan array binding signal (z-score): -0.17
[36]
  glycan array binding signal (z-score): -0.281
Neu5Ac(a2-6)Gal(b1-4)Glc
  glycan array binding signal (z-score): -0.171
[37]
  glycan array binding signal (z-score): -0.212
[38]
  glycan array binding signal (z-score): 0.2
[39]
  glycan array binding signal (z-score): -0.033
[40]
  glycan array binding signal (z-score): -0.253
[41]
  glycan array binding signal (z-score): -0.113
[42]
  glycan array binding signal (z-score): -0.309
